Reference: ChEMBL document CHEMBL5308541, “MAIP: An Open-Source Tool to Enrich High-Throughput Screening Output and Identify Novel, Druglike Molecules with Antimalarial Activity” (ACS Med Chem Lett, 2023)
Hit rate of the full screen: of about 150,000 compounds, about 540 (0.36%) showed an effect of 50% or more. This is one part of the list.

test system: Plasmodium falciparum; experiment: Primary screen in NF54 nanoGlo assay, in single point, at 2uM, 72h; a lower Z score goes with more inhibition; format: functional, Erythrocyte; conditions: timepoint 72 hour

| SMILES | % Inhibition | Z score |
| --- | --- | --- |
| c1ccc2c(c1)CCCN2CCN1CCC(N2CCCCC2)CC1 | -3% | 0.7 |
| O=C(CCS(=O)(=O)c1ccccc1)N1CCN2C(COCC2C2CC2)C1 (stereo unspecified) | -2% | 0.42 |
| COCCN1CCN(C(=O)Nc2ccc(-c3cc4ccccc4[nH]3)cc2)CC1 | -9% | 1.62 |
| C[C@@H](CNc1nccc(N(C)C)n1)CN1CCCC1 | 3% | -0.72 |
| Cc1nccn1-c1cccc(NCCCN2CCN(c3ncccn3)CC2)n1 | -3% | 0.5 |
| CCN1CCN([C@H]2CCN(c3nc(-c4cccnc4)cs3)C2)CC1 | 7% | -1.52 |
| O=C(NC[C@@H](CN1CCCC1)C1CC1)c1ccnn1CC(F)(F)F | -1% | 0.12 |
| O=c1[nH]c(CN2CCC[C@H](c3c[nH]c4ncccc34)C2)nc2ccc(Cl)cc12 | -4% | 0.77 |
| CCCCNc1cc(N2CCO[C@H](c3cnn(CC)c3)C2)nc(N)n1 | -5% | 1.05 |
| COc1ccccc1-c1csc(C2CCN(CC[C@H]3CCCN3C)CC2)n1 | 34% | -5.23 |
| COc1ccc2cc(C(=O)N3CCC4(CC3)C[C@@H](Oc3cnccn3)CCO4)[nH]c2c1 | -18% | 3.08 |
| COc1ccc2oc([C@H](C)Nc3cc(-n4cccn4)nc(N)n3)c(C)c2c1 | -3% | 0.74 |
| CCCN1CCC(NC(=O)c2cc(-c3ccccc3Cl)[nH]n2)CC1 | -3% | 0.4 |
| Cc1nc2ccc(CNc3nnc(CCc4ccccc4)o3)cc2s1 | -1% | 0.2 |
| COc1cc(CN2CC(c3noc(C)n3)C2)ccc1OC(C)C | 1% | -0.24 |
| Cc1nc(CN2CCC[C@H](N(C)c3ncnc4[nH]ccc34)C2)no1 | 8% | -1.44 |
| COc1cccc(OCCN2CCN(c3nc(NCc4ccco4)c4ccccc4n3)CC2)c1 | -13% | 1.97 |
| CN1CCC(NC[C@H]2CCN(CC(F)(F)F)C2)CC1 | -3% | 0.5 |
| CCCNc1cc(N2CCCC(CCC(=O)NCC3CCCN3CC)C2)ncn1 (stereo unspecified) | 4% | -0.86 |
| Clc1cccnc1OC1CCC(NCc2ccc(N3CCCC3)nc2)CC1 (stereo unspecified) | -2% | 0.25 |
| CN(C)CCCN1CCN(Cc2cc3ccccc3[nH]2)CC1 | 13% | -2.23 |
| Fc1cccc(Cl)c1CN1CCC(NC[C@H]2CCCOC2)CC1 | 46% | -9.19 |
| OC1(Cn2ccnc2)CCN(Cc2cnc(NC[C@H]3CCCO3)nc2)CC1 | -7% | 1.01 |
| COc1ccc2nc(C(=O)NCC3CCN(C4CCOCC4)CC3)ccc2c1 | 10% | -2.16 |
| Cc1cccc([C@H]2C(=O)NCCN2Cc2cnc3n2CCOC3)c1 | -11% | 2.11 |
| CC1(C)CC(Nc2nn3cnnc3c3ccccc23)CC(C)(C)N1 | -4% | 0.66 |
| O=C(NCCN1CCCCC1)c1ccccc1OC1CCN(Cc2ccccn2)CC1 | 0% | 0 |

| SMILES | % Inhibition | Z score |
| --- | --- | --- |
| N#CC1(NC(=O)c2cccc(S(=O)(=O)N3CCC(c4ncc[nH]4)CC3)c2)CCCC1 | -2% | 0.45 |
| CN1CCN(c2ccc(F)cc2C(=O)NCCc2ccc3cn[nH]c3c2)CC1 | -12% | 2.68 |
| CNC(=O)NCc1cn([C@@H](C)c2cc(C)ccc2OC)nn1 | -2% | 0.49 |
| CCOc1ccccc1[C@@H]1c2[nH]c3ccccc3c2CCN1C(=O)CN1CCOC1=O | -3% | 0.62 |
| Cc1cc(NCc2ccccc2F)n2nccc2n1 | 3% | -0.59 |
| Cc1cc(N2CCN(C(=O)[C@H]3CCCN(C(C)C)C3)CC2)nc(N)n1 | 2% | -0.45 |
| Cc1cccc(Nc2nc(N)nc(CN3CCC[C@H](c4nc(CC(C)C)no4)C3)n2)c1 | -12% | 2.11 |
| COc1ccc(F)c(CNc2nc(N)nc3c2CCCC3)c1F | 8% | -1.73 |
| C[C@@H](c1ccc(-c2[nH]nc3ccccc23)cc1)N1CCOCC1 | -4% | 0.59 |
| CN1CCN(C[C@@H](O)CN(C)CC(=O)N2CCCCCC2)CC1 | -6% | 1.39 |
| Brc1cnccc1O[C@H]1CCN(c2ncnc3cnccc23)C1 | 2% | -0.33 |
| FCC1CN(Cc2c[nH]c3ccccc23)CC1c1n[nH]c(C2CC2)n1 (stereo unspecified) | -10% | 1.77 |
| CC[C@H]1C(=O)NCCCN1C(=O)CN1CCc2ccccc2C1=O | -3% | 0.63 |
| O=C(Nc1ccccc1)NS(=O)(=O)c1ccc(Nc2cccc(Cl)c2)nc1 | -6% | 0.87 |
| Cc1c(F)cc(C(N)=O)cc1NS(=O)(=O)CCc1ccc2c(c1)CCO2 | -7% | 1.24 |
| CN(C1CCN(Cc2ccccn2)CC1)[C@H]1CCCN(CCCc2ccccc2)C1 | -7% | 1.16 |
| COc1cccc(-n2cc(CN(C)Cc3nc(C(N)=O)no3)cn2)c1 | 3% | -0.58 |
| CCOc1cc(C(=O)NC2CCN(CC3CCCC3)CC2)cc(-c2ccccc2)c1OC | 71% | -12.46 |
| COc1ccnc(N2CCN(c3nccc(-c4cnccn4)n3)CC2)c1 | -16% | 3.46 |
| Cc1oc(-c2cnn(C)c2)nc1C(=O)Nc1ncc(C2CCNCC2)s1 | -19% | 3.25 |
| OC1COCC1N1CCCN(C2CCC3(CCNCC3)CC2)CC1 (stereo unspecified) | -9% | 1.32 |
| CCOC(=O)[C@H]1CCCN(c2ccc(-c3cnn(CCOC)c3)cn2)C1 | -11% | 1.66 |
| Cn1ncc2c(N)nc(NCc3csc(-c4cnccn4)n3)nc21 | 6% | -0.86 |
| O=C(Cc1cccc(F)c1)Nc1ccc(N2CCC(N3CCCN(c4ncccn4)CC3)CC2)cc1 | -8% | 1.38 |
| c1cc(-c2nc(C3CN4CCCCC4CO3)no2)ccc1CN1CCCC1 (stereo unspecified) | 0% | 0.07 |
| CCCN1CCC(N2C[C@H](NC3CCC(CC)CC3)C[C@H]2C(=O)NC)CC1 (stereo partly specified) | -3% | 0.59 |
